# According to the supplement of paper PMC8728848:
# The other results are listed elsewhere or left out.
# B1: F17aG (Escherichia coli), Q99003 (protein)
# chain: MTNFYKVFLAVFILVCCNISQAAVSFIGSTENDVGPSLGSYSRTHAMDNLPFVYDTRNKIGYQNANVWHISKGFCVGLDGKVDLPVVGSLDGQSIYGLTEEVGLLIWMGDTKYSRGTAMSGNSWENVFSGWCVGANTASTQGLSVRVTPVILKRNSSARYSVQKTSIGSIRMRPYNGSSAGSVQTTVNFSLNPFTLNDTVTSCRLLTPSAVNVSLAAISAGQLPSSGDEVVAGTTSLKLQCDAGVTVWATLTDATTPSNRSDILTLTGASTATGVGLRIYKNTDSTPLKFGPDSPVKGNENQWQLSTGTETSPSVRLYVKYVNTGEGINPGTVNGISTFTFSYQ
# How the values were obtained:
# Assay in all cases: glycan array binding signal (z-score within array); higher = stronger binding
# Conditions in all cases: glycan notation: IUPAC condensed, linker removed
# [1] = target: Fuc(a1-2)Gal6S(b1-4)Glc6S
# How it was run: (§1)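 Arrays were curated from the Consortium for Functional Glycomics database, 3228 in total, and kept only where the protein sequence was available. Binding is expressed as a within-array Z-score. This score was averaged across arrays of the same protein sequence at different concentrations or buffers and across linkers, and negative values can be read as non-binding.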
# [2] = target: Fuc(a1-2)Gal6S(b1-4)GlcNAc
# How it was run: as §1
# [3] = target: Fuc(a1-2)GlcNAc
# How it was run: as §1
# [4] = target: Fuc(a1-2)[Gal(a1-3)]Gal
# How it was run: as §1
# [5] = target: Fuc(a1-2)[Gal(a1-3)]Gal(b1-3)GalNAc
# How it was run: as §1
# [6] = target: Fuc(a1-2)[Gal(a1-3)]Gal(b1-3)GlcNAc
# How it was run: as §1
# [7] = target: Fuc(a1-2)[Gal(a1-3)]Gal(b1-3)GlcNAc(b1-2)Man(a1-3)[Fuc(a1-2)[Gal(a1-3)]Gal(b1-3)GlcNAc(b1-2)Man(a1-6)]Man(b1-4)GlcNAc(b1-4)GlcNAc
# How it was run: as §1
# [8] = target: Fuc(a1-2)[Gal(a1-3)]Gal(b1-3)GlcNAc(b1-2)Man(a1-3)[Fuc(a1-2)[Gal(a1-3)]Gal(b1-3)GlcNAc(b1-2)Man(a1-6)]Man(b1-4)GlcNAc(b1-4)[Fuc(a1-6)]GlcNAc
# How it was run: as §1
# [9] = target: Fuc(a1-2)[Gal(a1-3)]Gal(b1-3)GlcNAc(b1-3)GalNAc
# How it was run: as §1
# [10] = target: Fuc(a1-2)[Gal(a1-3)]Gal(b1-4)Glc
# How it was run: as §1
# [11] = target: Fuc(a1-2)[Gal(a1-3)]Gal(b1-4)GlcNAc
# How it was run: as §1
# [12] = target: Fuc(a1-2)[Gal(a1-3)]Gal(b1-4)GlcNAc(b1-2)Man(a1-3)[Fuc(a1-2)[Gal(a1-3)]Gal(b1-4)GlcNAc(b1-2)Man(a1-6)]Man(b1-4)GlcNAc(b1-4)GlcNAc
# How it was run: as §1
# [13] = target: Fuc(a1-2)[Gal(a1-3)]Gal(b1-4)GlcNAc(b1-2)Man(a1-3)[Fuc(a1-2)[Gal(a1-3)]Gal(b1-4)GlcNAc(b1-2)Man(a1-6)]Man(b1-4)GlcNAc(b1-4)[Fuc(a1-6)]GlcNAc
# How it was run: as §1
# [14] = target: Fuc(a1-2)[Gal(a1-3)]Gal(b1-4)GlcNAc(b1-3)GalNAc
# How it was run: as §1
# [15] = target: Fuc(a1-2)[Gal(a1-3)]Gal(b1-4)[Fuc(a1-3)]Glc
# How it was run: as §1
# [16] = target: Fuc(a1-2)[Gal(a1-3)]Gal(b1-4)[Fuc(a1-3)]GlcNAc
# How it was run: as §1
# [17] = target: Fuc(a1-2)[Gal(a1-3)]Gal(b1-4)[Fuc(a1-3)]GlcNAc(b1-3)GalNAc
# How it was run: as §1
# [18] = target: Fuc(a1-2)[Gal(a1-4)]Gal(b1-4)GlcNAc
# How it was run: as §1
# [19] = target: Fuc(a1-2)[GalNAc(a1-3)]Gal
# How it was run: as §1
# [20] = target: Fuc(a1-2)[GalNAc(a1-3)]Gal(b1-3)GalNAc(a1-3)[Fuc(a1-2)]Gal(b1-4)GlcNAc
# How it was run: as §1
# [21] = target: Fuc(a1-2)[GalNAc(a1-3)]Gal(b1-3)GlcNAc
# How it was run: as §1
# [22] = target: Fuc(a1-2)[GalNAc(a1-3)]Gal(b1-3)GlcNAc(b1-2)Man(a1-3)[Fuc(a1-2)[GalNAc(a1-3)]Gal(b1-3)GlcNAc(b1-2)Man(a1-6)]Man(b1-4)GlcNAc(b1-4)GlcNAc
# How it was run: as §1
# [23] = target: Fuc(a1-2)[GalNAc(a1-3)]Gal(b1-3)GlcNAc(b1-2)Man(a1-3)[Fuc(a1-2)[GalNAc(a1-3)]Gal(b1-3)GlcNAc(b1-2)Man(a1-6)]Man(b1-4)GlcNAc(b1-4)[Fuc(a1-6)]GlcNAc
# How it was run: as §1
# [24] = target: Fuc(a1-2)[GalNAc(a1-3)]Gal(b1-3)GlcNAc(b1-3)GalNAc
# How it was run: as §1
# [25] = target: Fuc(a1-2)[GalNAc(a1-3)]Gal(b1-4)Glc
# How it was run: as §1
# [26] = target: Fuc(a1-2)[GalNAc(a1-3)]Gal(b1-4)GlcNAc
# How it was run: as §1
# [27] = target: Fuc(a1-2)[GalNAc(a1-3)]Gal(b1-4)GlcNAc(b1-2)Man(a1-3)[Fuc(a1-2)[GalNAc(a1-3)]Gal(b1-4)GlcNAc(b1-2)Man(a1-6)]Man(b1-4)GlcNAc(b1-4)GlcNAc
# How it was run: as §1
# [28] = target: Fuc(a1-2)[GalNAc(a1-3)]Gal(b1-4)GlcNAc(b1-2)Man(a1-3)[Fuc(a1-2)[GalNAc(a1-3)]Gal(b1-4)GlcNAc(b1-2)Man(a1-6)]Man(b1-4)GlcNAc(b1-4)[Fuc(a1-6)]GlcNAc
# How it was run: as §1
# [29] = target: Fuc(a1-2)[GalNAc(a1-3)]Gal(b1-4)GlcNAc(b1-3)Gal(b1-4)GlcNAc
# How it was run: as §1
# [30] = target: Fuc(a1-2)[GalNAc(a1-3)]Gal(b1-4)GlcNAc(b1-3)Gal(b1-4)GlcNAc(b1-3)Gal(b1-4)GlcNAc
# How it was run: as §1
# [31] = target: Fuc(a1-2)[GalNAc(a1-3)]Gal(b1-4)GlcNAc(b1-3)GalNAc
# How it was run: as §1
# [32] = target: Fuc(a1-2)[GalNAc(a1-3)]Gal(b1-4)[Fuc(a1-3)]GlcNAc
# How it was run: as §1
# [33] = target: Fuc(a1-2)[GalNAc(a1-3)]Gal(b1-4)[Fuc(a1-3)]GlcNAc(b1-3)GalNAc
# How it was run: as §1
# [34] = target: Fuc(a1-2)[GalNAc(a1-4)]Gal(b1-4)GlcNAc
# How it was run: as §1
# [35] = target: Fuc(a1-2)[GalNAc(b1-3)]Gal
# How it was run: as §1
# [36] = target: Fuc(a1-3)GlcNAc
# How it was run: as §1
# [37] = target: Fuc(a1-3)[Gal(b1-4)]Glc6S
# How it was run: as §1
# [38] = target: Fuc(a1-3)[Gal(b1-4)]GlcNAc
# How it was run: as §1
binder,measurement,setting,value
B1,glycan array binding signal (z-score),[1],-0.167
same,glycan array binding signal (z-score),[2],-0.148
same,glycan array binding signal (z-score),[3],-0.327
same,glycan array binding signal (z-score),[4],-0.211
same,glycan array binding signal (z-score),[5],-0.171
same,glycan array binding signal (z-score),[6],-0.205
same,glycan array binding signal (z-score),[7],-0.169
same,glycan array binding signal (z-score),[8],-0.172
same,glycan array binding signal (z-score),[9],-0.168
same,glycan array binding signal (z-score),[10],-0.249
same,glycan array binding signal (z-score),[11],-0.265
same,glycan array binding signal (z-score),[12],-0.159
same,glycan array binding signal (z-score),[13],-0.179
same,glycan array binding signal (z-score),[14],-0.133
same,glycan array binding signal (z-score),[15],-0.158
same,glycan array binding signal (z-score),[16],-0.183
same,glycan array binding signal (z-score),[17],-0.155
same,glycan array binding signal (z-score),[18],-0.165
same,glycan array binding signal (z-score),[19],0.386
same,glycan array binding signal (z-score),[20],-0.177
same,glycan array binding signal (z-score),[21],-0.249
same,glycan array binding signal (z-score),[22],-0.136
same,glycan array binding signal (z-score),[23],-0.143
same,glycan array binding signal (z-score),[24],-0.113
same,glycan array binding signal (z-score),[25],-0.247
same,glycan array binding signal (z-score),[26],-0.233
same,glycan array binding signal (z-score),[27],-0.099
same,glycan array binding signal (z-score),[28],-0.135
same,glycan array binding signal (z-score),[29],-0.171
same,glycan array binding signal (z-score),[30],0.023
same,glycan array binding signal (z-score),[31],-0.159
same,glycan array binding signal (z-score),[32],-0.188
same,glycan array binding signal (z-score),[33],-0.157
same,glycan array binding signal (z-score),[34],-0.242
same,glycan array binding signal (z-score),[35],-0.247
same,glycan array binding signal (z-score),[36],-0.228
same,glycan array binding signal (z-score),[37],-0.146
same,glycan array binding signal (z-score),[38],-0.244
